Source: the supplement of paper PMC11543636
Each value is the number of isolates with that result; steps that no isolate showed are left empty. MIC of clinical M. tuberculosis isolates from a national drug-resistance survey, broth microdilution on MYCOTB, UKMYC5 or UKMYC6 plates (ranges differ by plate), read after 10-21 days; higher = less susceptible. Call: the paper's susceptible [S] / resistant [R] by the drug's critical concentration (it differs by plate for some drugs); calls for ofloxacin and levofloxacin are not shown. MYCOTB plates carry ofloxacin; the paper halves those MICs to stand for levofloxacin, and they are doubled back here. The top step of a plate is printed with and without '>' in the source and is marked '>=' when plain; the plain lowest step of rifampicin and kanamycin on MYCOTB is marked '<='. Isolates that the source marks as part of the WHO data set are not listed here.

Key:
Experiment in all cases: Isolates counted by MIC; Broth microdilution on commercial drug-susceptibility plates, read by two operators.
[1] = tested on: Mycobacterium tuberculosis lineage 2 on plate UKMYC6 (1560 isolates)
[2] = tested on: Mycobacterium tuberculosis lineage 1 on plate MYCOTB (31 isolates)
[3] = tested on: Mycobacterium tuberculosis lineage 2 on plate MYCOTB (3815 isolates)
[4] = tested on: Mycobacterium tuberculosis lineage 3 on plate UKMYC6 (383 isolates)
[5] = tested on: Mycobacterium tuberculosis lineage 4 on plate UKMYC6 (615 isolates)
[6] = tested on: Mycobacterium tuberculosis lineage 4 on plate UKMYC5 (155 isolates)
[7] = tested on: Mycobacterium tuberculosis lineage 2 on plate UKMYC5 (529 isolates)
[8] = tested on: Mycobacterium tuberculosis lineage 4 on plate MYCOTB (1613 isolates)
[9] = tested on: Mycobacterium tuberculosis lineage 4 on plate UKMYC6 (614 isolates)
[10] = tested on: Mycobacterium tuberculosis lineage 2 on plate UKMYC5 (530 isolates)
[11] = tested on: Mycobacterium tuberculosis lineage 3 on plate UKMYC6 (380 isolates)
[12] = tested on: Mycobacterium tuberculosis lineage 2 on plate UKMYC6 (1564 isolates)

NCC[C@H](O)C(=O)N[C@@H]1C[C@H](N)[C@@H](O[C@H]2O[C@H](CN)[C@@H](O)[C@H](O)[C@H]2O)[C@H](O)[C@H]1O[C@H]1O[C@H](CO)[C@@H](O)[C@H](N)[C@H]1O [amikacin]
isolate count
Details	[1]	[2]	[3]	[4]	[5]	[6]	[7]	[8]
MIC: 0.25 mg/L	–	12 [S]	2310 [S]	–	–	–	–	435 [S]
MIC: 0.5 mg/L	341 [S]	15 [S]	1300 [S]	163 [S]	343 [S]	88 [S]	178 [S]	1080 [S]
MIC: 1 mg/L	15 [S]	–	45 [S]	3 [S]	14 [S]	28 [S]	67 [S]	61 [S]
MIC: 2 mg/L	2 [R]	1 [S]	9 [S]	–	1 [R]	–	6 [R]	1 [S]
MIC: 4 mg/L	2 [R]	–	7 [S]	–	3 [R]	–	4 [R]	3 [S]
MIC: 8 mg/L	4 [R]	1 [R]	7 [R]	–	–	–	–	3 [R]
MIC: >8 mg/L	–	–	–	–	–	–	1 [R]	–
MIC: >16 mg/L	7 [R]	–	–	–	–	–	–	3 [R]
MIC: ≤0.12 mg/L	–	1 [S]	109 [S]	–	–	–	–	25 [S]
MIC: ≤0.25 mg/L	1180 [S]	–	–	215 [S]	252 [S]	39 [S]	258 [S]	–
MIC: ≥8 mg/L	–	–	–	–	–	–	15 [R]	–
MIC: ≥16 mg/L	5 [R]	1 [R]	29 [R]	2 [R]	2 [R]	–	–	4 [R]

COc1nc2ccc(Br)cc2cc1[C@@H](c1ccccc1)[C@@](O)(CCN(C)C)c1cccc2ccccc12 [bedaquiline]
isolate count
Details	[6]	[9]	[10]	[11]	[12]
MIC: 0.015 mg/L	–	41 [S]	3 [S]	5 [S]	120 [S]
MIC: 0.03 mg/L	55 [S]	204 [S]	173 [S]	14 [S]	557 [S]
MIC: 0.06 mg/L	71 [S]	334 [S]	272 [S]	272 [S]	736 [S]
MIC: 0.12 mg/L	13 [S]	14 [S]	54 [S]	69 [S]	82 [S]
MIC: 0.25 mg/L	2 [S]	11 [S]	2 [S]	19 [S]	30 [S]
MIC: 0.5 mg/L	–	1 [R]	1 [R]	1 [R]	2 [R]
MIC: 1 mg/L	1 [R]	–	–	–	–
MIC: >1 mg/L	–	–	–	–	2 [R]
MIC: >2 mg/L	–	–	1 [R]	–	–
MIC: ≤0.008 mg/L	–	9 [S]	–	–	32 [S]
MIC: ≤0.015 mg/L	13 [S]	–	22 [S]	–	1 [S]
MIC: ≥1 mg/L	–	–	–	–	2 [R]
MIC: ≥2 mg/L	–	–	2 [R]	–	–
